Results taken from the RNAGym collection of RNA variant scans (doi:10.7554/elife.90254).
The source gives no read counts; variants with many changes may rest on few reads.

B1: OR4K15 (parent)
chain: GUUAACGGUCAUAGGCCAUGGAAACUAGGAGCACCAUUUCGCUGCCAGUGAAGAAAUGAACAAAGAAAAUCUGGGCCAGGCAGGCAUCAAAAGAAAUAGUCUUGCGCUCAACCAGAAAGUCUGUAAUCAUUUUAAGGGUA

Variants of: B1
Assay: self-cleavage, relative activity (ratio to wild type); higher = more cleavage; in vitro, sequencing; the parent is a self-cleaving ribozyme

Variant	self-cleavage
GUUAACGGUCAUAGGCCAUGGAAACUAGGAGCACCGUUUCGCUGCCAGUGAAGAAAUGAACAAGGAAAAUCUGGGCCGGGCAGGCAUCAAAAGAAAUAGUCUUGCGCUCAACCAGAAAGUCUGUAAUCAUUUUAAGGGUA	0.36
GUUAACGGUCAUAGGCCAUGGAAACUAGGAGCACCAUUUCGCUGCCAGUGAAGAAAUGAGCAAAGAAAAUCCGGGCCAGGCAGGUAUCAAAAGAAAUAGUCUUGCGCUCAACCGGAAAGUCCGUAAUCAUUUUAAGGGUA	0.49
GUUAACGGUCAUAGGCCAUGGAUACUAGGAGCACCAUUUCGCUGCCAGUGAAGAAAUGAACAAAGAAAAUCUGGGCCAGGCAGGCAUCAAAGGAGAUAGUCUUGCGCUCAACCAGAAAGUCUGUAACCAUUUUAAGGGUA	1.38
GUUAACGGUCAUCGGCCAUGGAAACUAGGAGCACCAUUUCGCUACCAGUGAAGAAAUGAACAAUGAAAAUCUGGGCCAGGCAGGCAUCAAAAGAAAUAGUCUUGCGCUCAACCAGAAAGUCUGUAAUCAUUUUAAGGGUA	1.6
GUUAUCGGUCAUAGGCCAUGGAAACUAGGAGCACCAUUUCGCUGCCAGUGAAGAAAGGAACAAAGAAAAUCUGGGCCAGGCAGGCAUCAAAAGAAAUAGUCUUGCGCUCAACCAGAAAGCCUGUAAUCAUUUUAAGGGUA	1.24
GUUAACGGUCAUAGGCCAUGGAAACUAGGAGCACCAUUUCGCUGCCAGUGAAGAAAUGGACAAAGAAAAUCUGGGCCAGGCAGGCAUCAAAAGAAAUAGUCUUGCGCUCAACCAGAAAGUCUGUAAUCGCUUUAAGGGUA	1.97
GUUAACGGUCAUAGGCCAUGGAAACUGGGAGCACCACUUCGCUGCCAGUGAAGGAACGAACAAAGAAAAUCUGGGCCAGGCAGGCACCAAAAGAAAUAGUCUUGCGCUCAACCAGAAAGUCUGUAAUCAUUUUAAGGGUA	0.36
GGUAACGGUCAUAGGCCAUGGAAACUAGGAGCACCAUUUCGCUGCCAGUGAAGAAAUGAACAGAGAAAAUCUGGGCCAGGCAGGCAUCAAAAGUAAUAGUCUUGCGCUCAACCAGAAAGUCUGUAAUCAUUUUAAGGGUA	0.5
GUUAACGGUCAUAGGCCAUGGAAACUAGGAGCACCAUUUCGCUGCCAGUGAAGAAAUGAACAAAGAAAAUCUGGGCCAGGCAGGCAUCAAAAGGAAUAGUCUUGCGCUCAACCAGGAAGUCUGUGAUCAUUUUAAGGGUA	0.54
GUUAACGGUCAUAGGCCAUGGAAACUAGGAGCACCAUUUCGCCGCCAGAGAAGAGAUGAACAAAGAAAAUCUGGGCCAGGCAGGCAUCAAAAGAAAUAGUCUUGCGCUCAACCAGAAGGUCCGUAAUCAUUUUAAGGGUA	0.82
GUUAACGGUCAUAGGCCAUGGAAACUAGGGGCACCAUAUCGCUGCCAGUGAAGAUAUGAACAAAGAAAAUCUGGGCCAGGCAGGCAUCAAAAGAAAUAGUCUUGCACUCAACCAGAAAGUCUGUAAUCAUUUUAAGGGUA	0.02
GUUAACGGUCAUAGGCCAUGGAAACUAGGAGCACCAUUUCGCUGCCAGUGAAGAAAUGAACAAAGAAAGUCUGGGCCAGGCAGGCGUCAAAAGAAAUAGUCUUGCGCUCAACCAGGGAGUCUGUAAUCAUUUUAAGGGUA	0.47
GUUAACGGUCAUAGGCCAUGGAAACUAGGAGCACCAUUUCGCUGCCAGUGAAGAAAUGAACAAAGAAAAUCUGGGCCUGGCAGGCAUCUAAAGAAAUAGUCUUGCGCUCAACCAGAAAGUCUGUAAUCAUCUUAAGGGUA	0.08
GUUAACGGUCAUAGGCCAUGGAAACUAGGAGCACCAUUUCGCUGCCAGUGAAGAAAUGAACAAAGAAAGUCUGGGCCAGGCGGGCAUCAAAAGAAAUAGUCUUGCGCCCAACCAGAAAGUCUGUAAUCAUCUUAAGGGUA	0.01
GUUAACGGUCAUAGGCCAUGGAAACUAGGGGCACCAUUUCGCUGCCAGUGAAGAAAUGAGCAAAGAAAAUCUGGGCCAGGCAGGCAUCAAAAGAAAUAGUCUUGCGCUCAACCAGAAAGCCCGUAAUCAUUUUAAGGGUA	1.22
GUUAACGGUCAUAGGCCAUGGAAACUAGGAGCACCAUUUCGCUGCCAGUGAAGAAAUGAGCAAGGAAAAUCUAGGCCAGGCAGGCAUCAAAAGAAAUAGUCUUGCGCUCAACCAGAAAGUCUGUAAUCAUUUUAAGGGCA	0.11
GUUAACGGUCAUAGGCCAUGGAAUCUAGGAGCACCAUUUCGCUGCCAGUGAAGAAAUGAACAAAGAAAAUCUGGGCCAGGCAGGCAUCAAGAGAAAUAGUCUUGCGCUCAACCAGAAAGUCCGUAAUCAUUUUAAGGGUA	0.28
GUUAACGGUCAUAGGCCAUGGAAACUAGGAGCACCAUUUCGCUGCCAGUGAAGAAAUGUACAAAGAAAAUCUGGGCCAGGCAGGCACCAAAAGGAAUAGUCUUGCGCUCAACCAGAAAGUCUGUAAUCAUUUUAAGGGUA	2.57
GUUAACGGUCAUAGGCCAUGGAAACUAGGAGCACCAUUUCGCUGCCAGUGAAGGAAUGAACAAAGAAAAUCUGGGCCAGGCUGGCAUCAAAAGGAAUAGUCUUGCGCUCAACCAGAAAGUCCGUAAUCAUUUUAAGGGUA	0.15
GUUAACGGUCAUAGGCCAUGGAAACUAGGAGCACCACUUCGCUGCCAGUGAAGAAAUGAACAAUGAAAAUCUGGGCCAGGCUGGCAUCAAAAGAAAUAGUCUUGCGCUCAACCAGAAAGUCUGUAAUCAUUUAAAGGGUA	0.19
GUUAACGGUCAUAGGCCAUGGAAACUAGGAGCACCAUUUCGCUGCCAGUGAAGAAAUGAACAGAGAAAAUCUGGGCCUGGCAGGCAUCAAAAGAGAUAGUCUUGCGCUCAACCAGAAAGUCUGUAAUCAUUUUAAGGGUA	0.82
